Assay results as given in the RNAGym collection of RNA variant scans (doi:10.1101/gad.245936.114).
Variants at the background level are over-represented here.

B1: tRNA (parent)
chain: CUCUCGGUAGCCAAGUUGGUUUAAGGCGCAAGACUUUAAUUUAUCACUACGAAAUCUUGAGAUCGGGCGUUCGACUCGCCCCCGGGAGAUUUUUUCCUCGAGCAA

Variants of: B1
Experiment: nonsense suppression (GFP-seq) (ratio to wild type); higher = more function; SUP4oc tRNA, yeast GFP reporter sort-seq
Method in brief: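 Each variant's nonsense suppression (GFPSEQ) is a cell-share-weighted bin median GFP/RFP relative to the unmutated parent tRNA. Yeast with genome-integrated tRNA variants from a ~3% random-mutation library, a galactose-driven GFP ochre reporter and RFP were grown in raffinose/galactose medium with 80 mg/L adenine, then sorted into GFP/RFP bins for Illumina sequencing. Variants needed ≥100 reads and ≥30 cells.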

G19C C27G A33U G88C and G19C C27G C79G cannot be ordered by nonsense suppression: no more than 0.026 for the first, no more than 0.026 for the second.

G19C C29G G69A C72A and G19C C34A U57C cannot be ordered by nonsense suppression: no more than 0.026 for the first, no more than 0.026 for the second.

G19C C68G and G19C C68U cannot be ordered by nonsense suppression: no more than 0.026 for the first, no more than 0.026 for the second.

G19C C72G and G19C C75G cannot be ordered by nonsense suppression: no more than 0.026 for the first, no more than 0.026 for the second.

G19C C77U and G19C G25C C34U cannot be ordered by nonsense suppression: no more than 0.026 for the first, no more than 0.026 for the second.

G19C G25C C83A and G19C G26A cannot be ordered by nonsense suppression: no more than 0.026 for the first, no more than 0.026 for the second.

G19C G26A G66U U76G G88U and G19C G28U cannot be ordered by nonsense suppression: no more than 0.026 for the first, no more than 0.026 for the second.

G19C G28U U35G G84A and G19C G32C G67C cannot be ordered by nonsense suppression: no more than 0.026 for the first, no more than 0.026 for the second.

G19C G32U A54U U76C C82U A89G and G19C G61A cannot be ordered by nonsense suppression: no more than 0.026 for the first, no more than 0.026 for the second.

G19C G61C C64A and G19C G61U cannot be ordered by nonsense suppression: no more than 0.026 for the first, no more than 0.026 for the second.

G19C G65A and G19C G65C C81G A89C cannot be ordered by nonsense suppression: no more than 0.026 for the first, no more than 0.026 for the second.

G19C G65C C81U A89C and G19C G65C G78A cannot be ordered by nonsense suppression: no more than 0.026 for the first, no more than 0.026 for the second.

G19C G73A G86A and G19C G73U cannot be ordered by nonsense suppression: no more than 0.026 for the first, no more than 0.026 for the second.

G19C G78A and G19C G84U cannot be ordered by nonsense suppression: no more than 0.026 for the first, no more than 0.026 for the second.

G19C G85C G86A and G19C G85U cannot be ordered by nonsense suppression: no more than 0.026 for the first, no more than 0.026 for the second.

G19C G88A and G19C U21A C27U cannot be ordered by nonsense suppression: no more than 0.026 for the first, no more than 0.026 for the second.

G19C U21C and G19C U21C G32U U57C U70C C72G cannot be ordered by nonsense suppression: no more than 0.026 for the first, no more than 0.026 for the second.

G19C U21C G66C G84A G86A and G19C U21G U76G cannot be ordered by nonsense suppression: no more than 0.026 for the first, no more than 0.026 for the second.

G19C U22C G66A and G19C U35C C72U cannot be ordered by nonsense suppression: no more than 0.026 for the first, no more than 0.026 for the second.

G19C U55A and G19C U55G cannot be ordered by nonsense suppression: no more than 0.026 for the first, no more than 0.026 for the second.

G19C U57A A62C and G19C U57C cannot be ordered by nonsense suppression: no more than 0.026 for the first, no more than 0.026 for the second.

G19C U70C and G19C U76A A89U cannot be ordered by nonsense suppression: no more than 0.026 for the first, no more than 0.026 for the second.

G19U A23C and G19U A23G C75U cannot be ordered by nonsense suppression: no more than 0.026 for the first, no more than 0.026 for the second.

G19U A23U and G19U A23U C34G A87G cannot be ordered by nonsense suppression: no more than 0.026 for the first, no more than 0.026 for the second.

G19U A24C G67C C80U C82U and G19U A24G G85A cannot be ordered by nonsense suppression: no more than 0.026 for the first, no more than 0.026 for the second.

G19U A24G U55G and G19U A24G U76G cannot be ordered by nonsense suppression: no more than 0.026 for the first, no more than 0.026 for the second.

G19U A30U A31C A33U and G19U A31G C75G cannot be ordered by nonsense suppression: no more than 0.026 for the first, no more than 0.026 for the second.

G19U A31G U57A and G19U A31U C77A cannot be ordered by nonsense suppression: no more than 0.026 for the first, no more than 0.026 for the second.

G19U A31U G85C and G19U A33G cannot be ordered by nonsense suppression: no more than 0.026 for the first, no more than 0.026 for the second.

G19U A33G C34G U58A G65C U70C U71C and G19U A33G C79G cannot be ordered by nonsense suppression: no more than 0.026 for the first, no more than 0.026 for the second.

G19U A33U C34U A60C G73U C75A and G19U A54C G86A cannot be ordered by nonsense suppression: no more than 0.026 for the first, no more than 0.026 for the second.

G19U A54U C72U and G19U A60G cannot be ordered by nonsense suppression: no more than 0.026 for the first, no more than 0.026 for the second.

G19U A62G and G19U A74C cannot be ordered by nonsense suppression: no more than 0.026 for the first, no more than 0.026 for the second.

G19U C27A and G19U C27G G28A C68U G85U cannot be ordered by nonsense suppression: no more than 0.026 for the first, no more than 0.026 for the second.

G19U C27U U55C and G19U C29A G59A C75A cannot be ordered by nonsense suppression: no more than 0.026 for the first, no more than 0.026 for the second.

G19U C29G G65C and G19U C29G U55G G85C cannot be ordered by nonsense suppression: no more than 0.026 for the first, no more than 0.026 for the second.

G19U C29U C72G A89U and G19U C34G G61C G69C cannot be ordered by nonsense suppression: no more than 0.026 for the first, no more than 0.026 for the second.

G19U C56G G69C U70G G78A and G19U C79A cannot be ordered by nonsense suppression: no more than 0.026 for the first, no more than 0.026 for the second.

G19U C79U and G19U C81A cannot be ordered by nonsense suppression: no more than 0.026 for the first, no more than 0.026 for the second.

G19U G25A A31G U35G C64G and G19U G25A U55C U76G C77U cannot be ordered by nonsense suppression: no more than 0.026 for the first, no more than 0.026 for the second.

G19U G25C G66C C81G G86C and G19U G25C G73C cannot be ordered by nonsense suppression: no more than 0.026 for the first, no more than 0.026 for the second.

G19U G25U G28C C29G A30G C82U and G19U G25U G61U cannot be ordered by nonsense suppression: no more than 0.026 for the first, no more than 0.026 for the second.

G19U G26A and G19U G26C cannot be ordered by nonsense suppression: no more than 0.026 for the first, no more than 0.026 for the second.

Compared with G19U G26C U57C, G19U G28A is higher in nonsense suppression: no more than 0.026 for the first, 0.0287 for the second.

G19U G32A G61U and G19U G59C cannot be ordered by nonsense suppression: no more than 0.026 for the first, no more than 0.026 for the second.

G19U G59U and G19U G65U cannot be ordered by nonsense suppression: no more than 0.026 for the first, no more than 0.026 for the second.

G19U G67A and G19U G78U cannot be ordered by nonsense suppression: no more than 0.026 for the first, no more than 0.026 for the second.

G19U G84A and G19U G85C cannot be ordered by nonsense suppression: no more than 0.026 for the first, no more than 0.026 for the second.

G19U U20G G84A and G19U U21A G26U C34U U55G cannot be ordered by nonsense suppression: no more than 0.026 for the first, no more than 0.026 for the second.

G19U U21G A54U U70G and G19U U21G C34U cannot be ordered by nonsense suppression: no more than 0.026 for the first, no more than 0.026 for the second.

G19U U22C U70C C79G and G19U U22G A30C U57C A87G cannot be ordered by nonsense suppression: no more than 0.026 for the first, no more than 0.026 for the second.

G19U U22G A87C and G19U U22G U35A G61U C72A cannot be ordered by nonsense suppression: no more than 0.026 for the first, no more than 0.026 for the second.

G19U U35C C72G and G19U U55C cannot be ordered by nonsense suppression: no more than 0.026 for the first, no more than 0.026 for the second.

G19U U55C G67A and G19U U57G cannot be ordered by nonsense suppression: no more than 0.026 for the first, no more than 0.026 for the second.

G19U U58A and G19U U63G G67C cannot be ordered by nonsense suppression: no more than 0.026 for the first, no more than 0.026 for the second.

G19U U71C and G19U U76A cannot be ordered by nonsense suppression: no more than 0.026 for the first, no more than 0.026 for the second.

First: U20A
Second: U20A A23U C56G G61U G65A
The nonsense suppression of the first is higher: 1.18 for the first, no more than 0.026 for the second.

U20A A24C A30U G84U and U20A A24G cannot be ordered by nonsense suppression: no more than 0.026 for the first, no more than 0.026 for the second.

Compared with U20A A24U G66A, U20A A31G is higher in nonsense suppression: no more than 0.026 for the first, 0.461 for the second.

U20A A33C C81G and U20A A54C U58A cannot be ordered by nonsense suppression: no more than 0.026 for the first, no more than 0.026 for the second.

First: U20A A54U U76C
Second: U20A A60C G85U
The nonsense suppression of the first is higher: 0.24 for the first, no more than 0.026 for the second.

Compared with U20A A60U C79U, U20A A87G is higher in nonsense suppression: 0.212 for the first, 0.226 for the second.

U20A A89U and U20A C27G A62C U63C C64A cannot be ordered by nonsense suppression: no more than 0.026 for the first, no more than 0.026 for the second.

U20A C27U and U20A C29A A87U cannot be ordered by nonsense suppression: no more than 0.026 for the first, no more than 0.026 for the second.

U20A C29G and U20A C29G A33U C82G cannot be ordered by nonsense suppression: no more than 0.026 for the first, no more than 0.026 for the second.

U20A C29G C34A and U20A C34G C80G cannot be ordered by nonsense suppression: no more than 0.026 for the first, no more than 0.026 for the second.

U20A C56A G66A and U20A C68G cannot be ordered by nonsense suppression: no more than 0.026 for the first, no more than 0.026 for the second.

U20A C72G and U20A C72U cannot be ordered by nonsense suppression: no more than 0.026 for the first, no more than 0.026 for the second.

U20A C77U G78A C80A and U20A C79A cannot be ordered by nonsense suppression: no more than 0.026 for the first, no more than 0.026 for the second.

U20A G25C and U20A G26A A74U cannot be ordered by nonsense suppression: no more than 0.026 for the first, no more than 0.026 for the second.

U20A G26C A31U C68A and U20A G32U cannot be ordered by nonsense suppression: no more than 0.026 for the first, no more than 0.026 for the second.

U20A G32U G84C and U20A G59C cannot be ordered by nonsense suppression: no more than 0.026 for the first, no more than 0.026 for the second.

Compared with U20A G61U, U20A G69A is lower in nonsense suppression: 0.217 for the first, no more than 0.026 for the second.

Compared with U20A G85U, U20A G86A is lower in nonsense suppression: 0.0676 for the first, no more than 0.026 for the second.

U20A U21C G32C U71C and U20A U22G G32U C56U C79G cannot be ordered by nonsense suppression: no more than 0.026 for the first, no more than 0.026 for the second.

U20A U35G U57A and U20A U55A cannot be ordered by nonsense suppression: no more than 0.026 for the first, no more than 0.026 for the second.

U20A U55A A87C and U20A U55A U71A cannot be ordered by nonsense suppression: no more than 0.026 for the first, no more than 0.026 for the second.

U20A U57A and U20A U57C cannot be ordered by nonsense suppression: no more than 0.026 for the first, no more than 0.026 for the second.

U20A U57C G73C C82G and U20A U57G U58C cannot be ordered by nonsense suppression: no more than 0.026 for the first, no more than 0.026 for the second.

Going from U20A U58G U71A to U20A U63A, the nonsense suppression rises from no more than 0.026 to 0.187.

Going from U20A U63C G88U to U20A U63G, the nonsense suppression rises from no more than 0.026 to 0.106.

Compared with U20A U76A, U20C is higher in nonsense suppression: no more than 0.026 for the first, 0.848 for the second.

Going from U20C A23U A54G to U20C A24C, the nonsense suppression rises from no more than 0.026 to 0.249.

U20C A24G G67A showed a nonsense suppression of no more than 0.026.
